The source of these data is paper PMC10542344 (Communications Biology, 2023).

The data set concerns the molecule itself. The data set can be described thus: crystal structure; 11.003 Fab with IL-17A (34-155, C129S), 1.5-fold molar excess of Fab, complex purified by SEC; 1.9 Å. (In general: Size exclusion chromatography separates by hydrodynamic size, large species first.)

B1: recombinant human IL-17A ([…], Cys129 mutated to Ser) (ligand)
chain: not shown
notes: human interleukin-17A, […] of UniProt entry […] with Cys129 mutated to Ser; Homodimer in the crystal
As to B1, the binding result is given as “binds”.
